Test results from ChEMBL document CHEMBL4888484, “Replenishing the malaria drug discovery pipeline: Screening and hit evaluation of the MMV Hit Generation Library 1 (HGL1) against asexual blood stage Plasmodium falciparum ,using a nano luciferase reporter read-out” (2022).
The whole screen tested about 150,000 compounds, of which about 540 (0.36%) showed an effect of 50% or more. The list shows a part of the results.

The molecules below were run on Plasmodium falciparum (assay: Primary screen in NF54 nanoGlo assay, in single point, at 2uM, 72h; a lower Z score goes with more inhibition). Settings: timepoint 72 hour.
Format: functional, Erythrocyte
For `Cc1nc(N)nc(C)c1CC(=O)N(C)Cc1cccc2cnccc12`, the “% Inhibition” value was 6% and the Z score was -0.72. In the case of `Cc1cnc(COC(=O)c2cc(F)c(F)cc2Cl)o1`, the “% Inhibition” value is reported as -5% and the Z score is reported as 0.45. In the case of `CCc1nc([C@H](C)NCC(=O)Nc2ccc(Cl)cn2)cs1`, the “% Inhibition” value is reported as -11% and the Z score is reported as 1.15. With `C[C@H](NC(=O)N(C)CCN1CCCC1)c1ccc(O)cc1` the “% Inhibition” value was -10% and the Z score was 1.31. `O=C1CC[C@@H]2CN(Cc3c(F)cccc3F)CC[C@@H]2N1CC1CCCCC1` was tested, and the “% Inhibition” value was -10% and the Z score was 1.23. In the case of `Cn1c(C(=O)N2CCOCC2)cc2occc21`, the “% Inhibition” value is reported as -5% and the Z score is reported as 0.74. In the case of `O=C(CCc1cc2n(n1)CCCNC2)Nc1cccc2c1CCC2`, the “% Inhibition” value is reported as -5% and the Z score is reported as 0.7. For `Cc1cc(O)cc(=O)n1C[C@@H]1OCCc2ccccc21`, the “% Inhibition” value was -10% and the Z score was 1.56. `N#CCCOC1(C#CCN2CCCC2)CCCCC1` was tested, and the “% Inhibition” value was 11% and the Z score was -1.49. With `CC1(C)OCC[C@@H]1CNc1ncnc2c1ncn2C1CC1` the “% Inhibition” value was -6% and the Z score was 0.97. For `COc1ccccc1CC(=O)N1CC(N2C(=O)COC2=O)C1`, the “% Inhibition” value was -7% and the Z score was 0.79. In the case of `CO[C@](C)(C(=O)NCc1csc(=O)[nH]1)C1CC1`, the “% Inhibition” value is reported as -1% and the Z score is reported as 0.16. `Cc1ccc(Cl)cc1N(CCCC(=O)NC[C@H]1CCCO1)S(C)(=O)=O` was tested, and the “% Inhibition” value was -20% and the Z score was 2.31. With `O=C1CN(C(=O)Nc2ccc(-c3ccccn3)cc2)CCN1` the “% Inhibition” value was 14% and the Z score was -1.86. With `Cc1ccoc1C(=O)N[C@@H]1CCC[C@@H]1F` the “% Inhibition” value was 1% and the Z score was -0.07. With `Fc1cccc(-c2n[nH]c3c2CN(c2ccnc4[nH]ncc24)CC3)c1` the “% Inhibition” value was -6% and the Z score was 0.7. In the case of `COc1ccc(CN(C)C(=O)[C@H](C)c2ccnn2C)cc1Cl`, the “% Inhibition” value is reported as -12% and the Z score is reported as 1.49. With `CC(C)[C@H](Nc1ncc(Cl)cn1)c1nnc2n1CCC2` the “% Inhibition” value was -4% and the Z score was 0.52. `O=C(Nc1ccccc1)OCC1(COC(=O)Nc2ccccc2)COC(c2ccc(Cl)cc2Cl)=N1` was tested, and the “% Inhibition” value was -18% and the Z score was 2.36. In the case of `COC(=O)[C@@]1(C)N[C@@H](c2cccnc2N2CCOCC2)[C@H]2C(=O)N(C)C(=O)[C@H]21`, the “% Inhibition” value is reported as 4% and the Z score is reported as -0.57. With `O=C(c1n[nH]c2ccccc12)N1CC[C@H]2[C@H](CCC(=O)N2CCCO)C1` the “% Inhibition” value was -9% and the Z score was 1.52. `COc1ccc(C(NC(=O)N2CCC[C@H]2c2nc3ccccc3[nH]2)C(C)C)cc1OC` (some centres not stated) was tested, and the “% Inhibition” value was 11% and the Z score was -1.79. For `Cc1cccc(C)c1CN1CC[C@@]2(C1)C(=O)N(CC(N)=O)c1ccccc12`, the “% Inhibition” value was 2% and the Z score was -0.3. In the case of `CC(Oc1cccnc1)C(=O)N1CCNCC1C` (configuration not stated), the “% Inhibition” value is reported as -4% and the Z score is reported as 0.55. With `COc1cccnc1-c1cccc(C(=O)N2CCC(F)(F)CC2)c1` the “% Inhibition” value was -21% and the Z score was 2.9. In the case of `c1onc2c1CN(Cc1nc3c(s1)CCCC3)CC2`, the “% Inhibition” value is reported as -9% and the Z score is reported as 0.93. `CCCN1CCN(Cc2cccc3c(C)cccc23)[C@H]2CS(=O)(=O)C[C@H]21` was tested, and the “% Inhibition” value was 0% and the Z score was 0.01. `O=C(CN1CCC(O)CC1)N1CC[C@]23C(=O)N(Cc4cn(nn4)CCCOc4cccc(c4)[C@@H]12)c1ccccc13` was tested, and the “% Inhibition” value was -17% and the Z score was 2.17. In the case of `Cc1cc(NCc2cccnc2N2CCN(c3ccccc3C)CC2)nc(N)n1`, the “% Inhibition” value is reported as -7% and the Z score is reported as 0.89. `Cc1ncc(C(=O)NCc2nc(C(C)(C)C)no2)cn1` was tested, and the “% Inhibition” value was -12% and the Z score was 1.54. For `CC(C)(C)CN(Cc1ccccc1)C(=O)CCS(C)(=O)=O`, the “% Inhibition” value was 9% and the Z score was -1.65. For `COC(=O)CN(C)C(=O)Cc1ccc(Cl)cc1Cl`, the “% Inhibition” value was -6% and the Z score was 0.55. In the case of `C[C@@H](CNC(=O)c1cc2c(s1)CCOC2)c1nncn1C`, the “% Inhibition” value is reported as -5% and the Z score is reported as 0.79. `CC(C)N(C)S(=O)(=O)N1CCC(CNC(=O)CCCn2cccn2)CC1` was tested, and the “% Inhibition” value was 2% and the Z score was -0.27. In the case of `CCCNC(=O)c1nc(C)c(C)nc1C(=O)Nc1ccc(Cl)cc1`, the “% Inhibition” value is reported as -34% and the Z score is reported as 3.97. In the case of `CC(C)N(C)CC(=O)NCC1(C)CCCCC1O` (configuration not stated), the “% Inhibition” value is reported as -8% and the Z score is reported as 1.1. `C#CCCC1(CCC(=O)N2CC[C@@H](Oc3cccc(Cl)c3)C2)N=N1` was tested, and the “% Inhibition” value was -10% and the Z score was 1.21. With `Cc1ccc(C(=O)N2C[C@@H]3CC[C@H]2CN(CC(=O)N(C)C)C3)c(F)c1` the “% Inhibition” value was -2% and the Z score was 0.39. `O=C(CCc1ccsc1)N[C@H]1CNCCC1(F)F` was tested, and the “% Inhibition” value was -10% and the Z score was 1.75. In the case of `CC(C)(C)c1ccc(-c2noc(CCC(=O)NC[C@H]3CCCO3)n2)cc1`, the “% Inhibition” value is reported as -8% and the Z score is reported as 0.93. `NC(=O)[C@@H]1C[C@H](Oc2ccccc2)CN1S(=O)(=O)c1cccnc1` was tested, and the “% Inhibition” value was -7% and the Z score was 0.96.
